Experimental data from paper PMC2648964, “Molecular Basis for the Sorting of the SNARE VAMP7 into Endocytic Clathrin-Coated Vesicles by the ArfGAP Hrb” (Cell, 2008).
Results are given in words; binding and its absence hold for the method and conditions named. For some of these results: In cells and extracts the contact can be indirect. Some binding calls cover weakened binding; strength is not graded here. For some of these results: Where a sequence is shown, tags or fusion partners need not be part of it. Values belong to the molecule of their own block, whether it stands above or below them.

By UniProt entry, the sequences of proteins in these tests, tags left out. Where a name states a change or a piece, a line headed by the entry shows the natural chain unless it says otherwise. Chains listed by the source or under a name are the forms on record and can include a tag or linker. Residues count along the entry.
GST-VAMP7 full-length wild-type cytoplasmic domain (not stated (human or mouse cDNA cloned)) (P51809, residues 1-188): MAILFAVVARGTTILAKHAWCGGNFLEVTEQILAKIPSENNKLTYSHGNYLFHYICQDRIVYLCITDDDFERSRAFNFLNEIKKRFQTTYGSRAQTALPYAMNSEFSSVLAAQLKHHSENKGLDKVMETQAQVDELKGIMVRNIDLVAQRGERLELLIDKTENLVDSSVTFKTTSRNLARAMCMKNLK
GST-VAMP7 whole cytoplasmic domain (I139S/M140S/I144S) triple mutant (not stated (human or mouse cDNA cloned)) (P51809, form named): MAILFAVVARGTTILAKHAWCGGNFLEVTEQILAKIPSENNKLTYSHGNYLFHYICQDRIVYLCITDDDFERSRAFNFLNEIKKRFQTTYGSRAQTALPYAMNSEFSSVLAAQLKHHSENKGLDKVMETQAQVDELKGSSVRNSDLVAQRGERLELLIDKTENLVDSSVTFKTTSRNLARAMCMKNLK
VAMP7 longin domain, GST tag removed (P70280, residues 1-120): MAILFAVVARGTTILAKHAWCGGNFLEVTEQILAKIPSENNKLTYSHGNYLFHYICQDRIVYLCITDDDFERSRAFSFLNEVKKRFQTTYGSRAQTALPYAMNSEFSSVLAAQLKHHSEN
VAMP7 longin domain L43S/Y45S, GST tag removed (P70280, form named): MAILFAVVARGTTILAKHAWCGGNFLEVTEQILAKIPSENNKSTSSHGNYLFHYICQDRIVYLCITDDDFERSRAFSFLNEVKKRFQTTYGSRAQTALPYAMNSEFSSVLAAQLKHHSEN
UniProt Q12846, residues 201-266: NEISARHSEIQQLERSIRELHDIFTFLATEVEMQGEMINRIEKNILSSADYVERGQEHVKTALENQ

Experiments:
[1] = target: GST-VAMP7 full-length wild-type cytoplasmic domain (not stated (human or mouse cDNA cloned)) (UniProt P51809); experiment: pull-down; assembly of the SNARE complex: GST-VAMP7(1-188), His6syntaxin4 (201-266) and SNAP23 (1-210) at 1:4:4, 4°C, 48 hr, 20 mM HEPES pH 7.5, 200 mM NaCl, 0.1% IGEPAL; collected on GST beads, washed three times; densitometry of a Coomassie-stained gel; both purified
[2] = target: VAMP7 longin domain His6, the VAMP7 part of the chimeric protein (not stated (human or mouse cDNA cloned)) (UniProt P70280); experiment: crystal structure; chimeric Hrb(136-176)/VAMP7 LDHis6, SIRAS, 2.2 Å, space group P2(1)2(1)2, four molecules in the asymmetric unit; both purified
[3] = target: VAMP7 longin domain (1-120), yeast two-hybrid fusion (not stated (human or mouse cDNA cloned)) (UniProt P70280); experiment: two-hybrid; directed test of GAL4 binding-domain and activation-domain fusions in diploid PJ69-4A; growth on medium lacking adenine; the Hrb DNA-binding-domain construct autoactivates
[4] = target: T1, Ykt6 longin domain (residues 1-132), yeast two-hybrid fusion (mouse) (UniProt Q9CQW1); experiment: as above
T1 sequence: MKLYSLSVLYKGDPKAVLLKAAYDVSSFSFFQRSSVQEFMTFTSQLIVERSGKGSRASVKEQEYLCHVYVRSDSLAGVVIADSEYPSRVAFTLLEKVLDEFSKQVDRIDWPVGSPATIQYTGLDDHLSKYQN

[5] = target: T2, Sec22b longin domain (residues 1-127), yeast two-hybrid fusion (mouse) (UniProt O08547); experiment: as above
T2 sequence: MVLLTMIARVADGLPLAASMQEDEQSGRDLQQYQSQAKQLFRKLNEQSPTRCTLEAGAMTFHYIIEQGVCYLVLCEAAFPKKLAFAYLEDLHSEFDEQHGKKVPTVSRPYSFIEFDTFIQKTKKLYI

[6] = target: GST-VAMP7 longin domain (mouse) (UniProt P70280); experiment: pull-down; GST-tagged bait with His6-tagged prey in PBS or 20 mM HEPES pH 7.5, 200 mM NaCl, 0.1% IGEPAL; 4°C, 1 hr; three washes; immunoblot with anti-His6; both purified
[7] = target: GST-VAMP7 longin domain (mouse) (UniProt P70280); experiment: pull-down; GST-tagged bait on glutathione beads with A431 cell cytosol; 4°C, 1 hr; five washes with 0.1% IGEPAL; immunoblot with anti-Hrb; only the target purified
[8] = target: T3, GST-Sec22b longin domain (mouse) (UniProt O08547); experiment: as above
T3 sequence: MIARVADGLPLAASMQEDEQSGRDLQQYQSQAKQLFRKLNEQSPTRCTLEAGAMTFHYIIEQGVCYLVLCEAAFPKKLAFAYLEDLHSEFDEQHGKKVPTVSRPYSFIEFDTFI

[9] = target: VAMP7 longin domain L43S/Y45S, GST tag removed (mouse) (UniProt P70280); experiment: ITC; VAMP7 longin domain (1.4 ml, 0.15-0.2 mM) in the cell, Hrb at 1.5-2 mM titrated in 30-40 injections of 4-8 μl; all GST tags removed; both purified
[10] = target: GST-VAMP7 whole cytoplasmic domain (I139S/M140S/I144S) triple mutant (not stated (human or mouse cDNA cloned)) (UniProt P51809); experiment: pull-down; GST-tagged bait with His6-tagged prey in PBS or 20 mM HEPES pH 7.5, 200 mM NaCl, 0.1% IGEPAL; 4°C, 1 hr; three washes; immunoblot with anti-His6; both purified
[11] = target: VAMP7 SNARE complex: GST-VAMP7(1-188), His6syntaxin4 (201-266) and SNAP23 (1-210) (not stated (human or mouse cDNA cloned) | not stated) (UniProt P51809+Q12846+O00161); experiment: as above
[12] = target: VAMP7 longin domain, GST tag removed (mouse) (UniProt P70280); experiment: ITC; VAMP7 longin domain (1.4 ml, 0.15-0.2 mM) in the cell, Hrb at 1.5-2 mM titrated in 30-40 injections of 4-8 μl; all GST tags removed; both purified

binding [1]: binds
Molecule: His6syntaxin4 (201-266) (from UniProt Q12846 201-266) (domain or fragment)

binding [1]: binds
B1: SNAP23 (1-210) (protein, UniProt O00161 1-210)
chain: MDNLSSEEIQQRAHQITDESLESTRRILGLAIESQDAGIKTITMLDEQKEQLNRIEEGLDQINKDMRETEKTLTELNKCCGLCVCPCNRTKNFESGKAYKTTWGDGGENSPCNVVSKQPGPVTNGQLQQPTTGAASGGYIKRITNDAREDEMEENLTQVGSILGNLKDMALNIGNEIDAQNPQIKRITDKADTNRDRIDIANARAKKLID

binding [6]: binds
B3: His6-tagged Hrb, bacterially expressed (protein, UniProt P52594-1 1-562)
chain: MAASAKRKQEEKHLKMLRDMTGLPHNRKCFDCDQRGPTYVNMTVGSFVCTSCSGSLRGLNPPHRVKSISMTTFTQQEIEFLQKHGNEVCKQIWLGLFDDRSSAIPDFRDPQKVKEFLQEKYEKKRWYVPPEQAKVVASVHASISGSSASSTSSTPEVKPLKSLLGDSAPTLHLNKGTPSQSPVVGRSQGQQQEKKQFDLLSDLGSDIFAAPAPQSTATANFANFAHFNSHAAQNSANADFANFDAFGQSSGSSNFGGFPTASHSPFQPQTTGGSAASVNANFAHFDNFPKSSSADFGTFNTSQSHQTASAVSKVSTNKAGLQTADKYAALANLDNIFSAGQGGDQGSGFGTTGKAPVGSVVSVPSQSSASSDKYAALAELDSVFSSAATSSNAYTSTSNASSNVFGTVPVVASAQTQPASSSVPAPFGATPSTNPFVAAAGPSVASSTNPFQTNARGATAATFGTASMSMPTGFGTPAPYSLPTSFSGSFQQPAFPAQAAFPQQTAFSQQPNGAGFAAFGQTKPVVTPFGQVAAAGVSSNPFMTGAPTGQFPTGSSSTNPFL

binding [12]: no binding (tested: >300 μM)
B7: Hrb(1-176) His6 L160S/L163S (domain or fragment, UniProt P52594-1 1-176)
chain: MAASAKRKQEEKHLKMLRDMTGLPHNRKCFDCDQRGPTYVNMTVGSFVCTSCSGSLRGLNPPHRVKSISMTTFTQQEIEFLQKHGNEVCKQIWLGLFDDRSSAIPDFRDPQKVKEFLQEKYEKKRWYVPPEQAKVVASVHASISGSSASSTSSTPEVKPSKSSLGDSAPTLHLNKG

binding [12]: no binding (tested: >300 μM)
B8: Hrb(1-176) His6 L163P/L164P (domain or fragment, UniProt P52594-1 1-176)
chain: MAASAKRKQEEKHLKMLRDMTGLPHNRKCFDCDQRGPTYVNMTVGSFVCTSCSGSLRGLNPPHRVKSISMTTFTQQEIEFLQKHGNEVCKQIWLGLFDDRSSAIPDFRDPQKVKEFLQEKYEKKRWYVPPEQAKVVASVHASISGSSASSTSSTPEVKPLKSPPGDSAPTLHLNKG

Further lines, the molecule ahead of its results:

Molecule: VASVHASISGSSASSTSSTPEVKPLKSLLGDSAPTLHLNKG (domain or fragment, UniProt P52594-1 136-176) [Hrb(136-176), the Hrb part of the chimeric protein]
binding [2]: binds

B2: full-length Hrb, yeast two-hybrid fusion (protein, UniProt P52594-1 1-562)
chain: MAASAKRKQEEKHLKMLRDMTGLPHNRKCFDCDQRGPTYVNMTVGSFVCTSCSGSLRGLNPPHRVKSISMTTFTQQEIEFLQKHGNEVCKQIWLGLFDDRSSAIPDFRDPQKVKEFLQEKYEKKRWYVPPEQAKVVASVHASISGSSASSTSSTPEVKPLKSLLGDSAPTLHLNKGTPSQSPVVGRSQGQQQEKKQFDLLSDLGSDIFAAPAPQSTATANFANFAHFNSHAAQNSANADFANFDAFGQSSGSSNFGGFPTASHSPFQPQTTGGSAASVNANFAHFDNFPKSSSADFGTFNTSQSHQTASAVSKVSTNKAGLQTADKYAALANLDNIFSAGQGGDQGSGFGTTGKAPVGSVVSVPSQSSASSDKYAALAELDSVFSSAATSSNAYTSTSNASSNVFGTVPVVASAQTQPASSSVPAPFGATPSTNPFVAAAGPSVASSTNPFQTNARGATAATFGTASMSMPTGFGTPAPYSLPTSFSGSFQQPAFPAQAAFPQQTAFSQQPNGAGFAAFGQTKPVVTPFGQVAAAGVSSNPFMTGAPTGQFPTGSSSTNPFL
binding [3]: binds
binding [4]: no binding
binding [5]: no binding

B4: endogenous Hrb from A431 cell cytosol (protein, UniProt P52594 1-562)
chain: MAASAKRKQEEKHLKMLRDMTGLPHNRKCFDCDQRGPTYVNMTVGSFVCTSCSGSLRGLNPPHRVKSISMTTFTQQEIEFLQKHGNEVCKQIWLGLFDDRSSAIPDFRDPQKVKEFLQEKYEKKRWYVPPEQAKVVASVHASISGSSASSTSSTPEVKPLKSLLGDSAPTLHLNKGTPSQSPVVGRSQGQQQEKKQFDLLSDLGSDIFAAPAPQSTATANFANFAHFNSHAAQNSANADFANFDAFGQSSGSSNFGGFPTASHSPFQPQTTGGSAASVNANFAHFDNFPKSSSADFGTFNTSQSHQTASAVSKVSTNKAGLQTADKYAALANLDNIFSAGQGGDQGSGFGTTGKAPVGSVVSVPSQSSASSDKYAALAELDSVFSSAATSSNAYTSTSNASSNVFGTVPVVASAQTQPASSSVPAPFGATPSTNPFVAAAGPSVASSTNPFQTNARGATAATFGTASMSMPTGFGTPAPYSLPTSFSGSFQQPAFPAQAAFPQQTAFSQQPNGAGFAAFGQTKPVVTPFGQVAAAGVSSNPFMTGAPTGQFPTGSSSTNPFL
binding [7]: binds
binding [8]: no binding

B5: Hrb(1-176) His6 (domain or fragment, UniProt P52594-1 1-176)
chain: MAASAKRKQEEKHLKMLRDMTGLPHNRKCFDCDQRGPTYVNMTVGSFVCTSCSGSLRGLNPPHRVKSISMTTFTQQEIEFLQKHGNEVCKQIWLGLFDDRSSAIPDFRDPQKVKEFLQEKYEKKRWYVPPEQAKVVASVHASISGSSASSTSSTPEVKPLKSLLGDSAPTLHLNKG
binding [9]: no binding (tested: >300 μM)
binding [6]: binds
binding [10]: binds
binding [11]: binds

B6: Hrb(1-176) His6 L171S/L173S (domain or fragment, UniProt P52594-1 1-176)
chain: MAASAKRKQEEKHLKMLRDMTGLPHNRKCFDCDQRGPTYVNMTVGSFVCTSCSGSLRGLNPPHRVKSISMTTFTQQEIEFLQKHGNEVCKQIWLGLFDDRSSAIPDFRDPQKVKEFLQEKYEKKRWYVPPEQAKVVASVHASISGSSASSTSSTPEVKPLKSLLGDSAPTSHSNKG
binding [12]: no binding (tested: >300 μM)
